According to PubChem BioAssay AID504333 (National Center for Advancing Translational Sciences (NCATS), 2011):
The campaign covered roughly 360,000 compounds. About 16,000 (4.4%) were called active. This list was built around the results that the source calls inconclusive (neither active nor inactive); the mix of calls is not that of the screen. The call rests on the fitted dose curve; in most records, active means well fitted inhibition curve with a large enough effect; inconclusive means small, poorly fitted or top-dose-only effect; inactive means no such curve, though single readings can be large or run the other way. Potencies of inconclusive entries are doubtful fits and often do not repeat.
Further: nearly all actives have a fitted effect of over 60% in size.
On the % scale 0 is the no-effect control and ±100 the full control effect; potency means the concentration at half of the fitted maximal effect; tags describe the fitted curve by direction and shape.

Each compound was assayed against Bromodomain adjacent to zinc finger domain protein 2B (Homo sapiens) (UniProt Q9UIF8) (assay: qHTS Assay for Inhibitors of BAZ2B). Settings: AlphaScreen BAZ2B-H3K14Ac peptide displacement; activity change, negative = inhibition: at 114 µM (top of the series) unless noted.
UniProt Q9UIF8, sequence (Q9UIF8 whole entry, looked up, the tested form may be a part): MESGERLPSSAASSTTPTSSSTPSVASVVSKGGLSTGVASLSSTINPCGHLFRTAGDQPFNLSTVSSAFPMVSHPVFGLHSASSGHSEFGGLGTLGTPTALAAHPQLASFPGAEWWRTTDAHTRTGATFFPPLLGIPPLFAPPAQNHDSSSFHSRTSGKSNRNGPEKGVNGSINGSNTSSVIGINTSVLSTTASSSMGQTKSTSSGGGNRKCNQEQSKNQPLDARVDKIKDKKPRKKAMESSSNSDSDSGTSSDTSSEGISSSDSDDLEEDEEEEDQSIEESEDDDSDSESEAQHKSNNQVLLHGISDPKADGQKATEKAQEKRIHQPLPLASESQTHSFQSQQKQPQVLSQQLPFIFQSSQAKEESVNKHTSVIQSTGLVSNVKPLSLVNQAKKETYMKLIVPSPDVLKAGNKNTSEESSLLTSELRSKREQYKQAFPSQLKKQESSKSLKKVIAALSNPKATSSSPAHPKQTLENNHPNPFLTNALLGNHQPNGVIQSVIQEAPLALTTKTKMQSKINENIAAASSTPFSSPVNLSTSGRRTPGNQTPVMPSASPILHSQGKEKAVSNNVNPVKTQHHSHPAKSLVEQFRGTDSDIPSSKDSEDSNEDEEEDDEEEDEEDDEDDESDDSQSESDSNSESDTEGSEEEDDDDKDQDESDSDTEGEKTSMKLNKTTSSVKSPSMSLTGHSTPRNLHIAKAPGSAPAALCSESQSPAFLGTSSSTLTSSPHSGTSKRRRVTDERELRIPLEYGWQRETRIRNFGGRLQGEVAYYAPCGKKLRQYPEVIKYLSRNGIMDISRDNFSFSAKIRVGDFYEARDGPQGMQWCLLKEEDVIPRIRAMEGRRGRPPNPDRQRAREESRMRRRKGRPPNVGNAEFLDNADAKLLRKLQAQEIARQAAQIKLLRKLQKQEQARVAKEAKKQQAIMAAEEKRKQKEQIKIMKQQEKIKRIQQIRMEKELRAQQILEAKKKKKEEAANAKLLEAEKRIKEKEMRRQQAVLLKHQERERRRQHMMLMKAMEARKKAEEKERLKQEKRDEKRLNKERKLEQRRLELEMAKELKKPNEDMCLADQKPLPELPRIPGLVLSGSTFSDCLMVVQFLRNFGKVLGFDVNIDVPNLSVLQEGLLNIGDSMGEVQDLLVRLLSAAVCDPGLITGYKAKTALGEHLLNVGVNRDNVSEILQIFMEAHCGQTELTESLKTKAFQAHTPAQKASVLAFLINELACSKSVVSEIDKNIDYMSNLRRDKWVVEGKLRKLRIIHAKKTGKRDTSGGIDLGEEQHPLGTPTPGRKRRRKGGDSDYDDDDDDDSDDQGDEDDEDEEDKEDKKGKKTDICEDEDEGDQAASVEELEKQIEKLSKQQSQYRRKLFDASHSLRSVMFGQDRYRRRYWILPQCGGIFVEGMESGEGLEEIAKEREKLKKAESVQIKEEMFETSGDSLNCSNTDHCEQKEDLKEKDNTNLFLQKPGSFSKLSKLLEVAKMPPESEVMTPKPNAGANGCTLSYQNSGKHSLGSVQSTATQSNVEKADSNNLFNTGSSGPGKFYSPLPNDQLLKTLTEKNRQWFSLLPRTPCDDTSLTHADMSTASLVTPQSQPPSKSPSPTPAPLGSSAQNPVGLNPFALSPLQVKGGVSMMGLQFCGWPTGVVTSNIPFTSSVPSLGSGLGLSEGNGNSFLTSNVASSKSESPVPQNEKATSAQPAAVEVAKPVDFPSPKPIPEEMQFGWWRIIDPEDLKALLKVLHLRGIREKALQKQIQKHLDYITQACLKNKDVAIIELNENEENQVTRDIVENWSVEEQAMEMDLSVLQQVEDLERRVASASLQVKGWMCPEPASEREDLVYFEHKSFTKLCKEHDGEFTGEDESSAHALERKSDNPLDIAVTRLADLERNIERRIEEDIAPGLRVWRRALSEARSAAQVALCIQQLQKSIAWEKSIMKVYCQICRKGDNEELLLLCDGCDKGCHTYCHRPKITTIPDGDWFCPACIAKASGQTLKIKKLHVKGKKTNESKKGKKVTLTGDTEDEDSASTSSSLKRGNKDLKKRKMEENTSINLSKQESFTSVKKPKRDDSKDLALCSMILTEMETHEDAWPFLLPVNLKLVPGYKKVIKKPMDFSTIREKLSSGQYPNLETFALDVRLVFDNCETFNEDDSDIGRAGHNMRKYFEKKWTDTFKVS
Method in brief: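 AlphaScreen displacement of biotin-H3(5-23)K14Ac peptide (50 nM final) from BAZ2B (50 nM final) in PBS pH 7.4, 0.01% Tween-20; complex preformed 30 min RT, then compounds (top 110 uM) 30 min RT, beads 20 min dark.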
In the case of `CC1(C)CC(=O)C(Sc2nnc(-c3ccc(O)cc3)n2CC2CCCO2)C(=O)C1` (stereo not drawn), the Potency is reported as inconclusive: 20 µM [inhibitor, single point].
With `COc1ccc(Cl)cc1/C=C/c1ccc2cccc(O)c2n1` the Potency was inconclusive: 7.94 µM [inhibitor, full curve].
For `O=C(CCn1c2c(c3ccccc31)CCCC2)NNC(=O)c1cccc([N+](=O)[O-])c1`, the Potency was inconclusive: 28.2 µM [inhibitor, partial curve].
With `CC1CCN(c2cc(N3CCN(C(=O)c4ccc(F)c(F)c4)CC3)c([N+](=O)[O-])cc2F)CC1` the Potency was inconclusive: 8.91 µM [inhibitor, full curve].
`COc1cccc(-c2nc(N3CCCCC3C)c3ccccc3n2)c1O` (stereo not drawn) was tested, and the Potency was inconclusive: 31.6 µM [inhibitor, full curve].
`O=C(CSc1ncn[nH]1)N1N=C2/C(=C/c3ccco3)CCCC2C1c1ccco1` (stereo not drawn) was tested, and the Potency was inconclusive: 50.1 µM [inhibitor, partial curve].
`COc1ccc(N2CCN(Cc3cccn3-c3nnc(N4CCN(C5CCCCC5)CC4)s3)CC2)cc1` was tested, and the Potency was inconclusive: 28.2 µM [inhibitor, single point].
With `COc1cccc(C(=O)Nc2nnc(-c3ccc(Cl)cc3)o2)c1` the Potency was inconclusive: 89.1 µM [inhibitor, single point].
For `CCOc1ccc(-n2nc(CO)c(C(=O)NCc3cccs3)n2)cc1`, the “activity change, negative = inhibition” value was inactive: 2.29%.
With `Cc1ccc([N+](=O)[O-])cc1S(=O)(=O)N1CCn2cccc2C1c1ccccc1` (stereo not drawn) the Potency was inconclusive: 11.2 µM [inhibitor, partial curve].
`COc1ccccc1NC(=O)CSc1nc2nccnc2c(=O)n1Cc1cccs1` was tested, and the Potency was inconclusive: 63.1 µM [inhibitor, partial curve, poor fit].
In the case of `COC(=O)C(CCSC)NC(=O)c1cc2c(n(-c3ccc(Cl)cc3)c1=O)CCCC2=O` (stereo not drawn), the “activity change, negative = inhibition” value is reported as inactive: -7.36%.
In the case of `CCOc1cc(/C=C/C(=O)c2ccc(OC)c(CN3CCOCC3)c2)cc(Br)c1O`, the Potency is reported as inconclusive: 70.8 µM [inhibitor, single point].
With `O=C(COC(=O)C1CCN(S(=O)(=O)c2cc([N+](=O)[O-])ccc2Cl)CC1)Nc1ncc(Cl)cc1Cl` the Potency was active: 31.6 µM.
`Cc1onc(-c2ccccc2Cl)c1C(=O)O/N=C(\N)c1ccc([N+](=O)[O-])o1` was tested, and the Potency was inconclusive: 35.5 µM [inhibitor, partial curve].
With `CCCn1nc(C(=O)OCc2nc(N)nc(Nc3ccccc3C)n2)c2ccccc2c1=O` the Potency was inconclusive: 89.1 µM [inhibitor, single point].
With `Cc1c(NS(=O)(=O)c2ccc3c(c2)CCN3C(=O)C2CC2)c(=O)n(-c2ccccc2)n1C` the Potency was inconclusive: 100 µM [inhibitor, single point].
In the case of `CCc1nc(N[C@@H](Cc2c[nH]c3ccccc23)C(=O)O)c2oc3ccccc3c2n1`, the Potency is reported as inconclusive: 50.1 µM [inhibitor, partial curve].
For `Cc1ccc(NC(=O)c2cc(N3C(=O)C=CC3=O)ccc2Cl)cc1C`, the Potency was inconclusive: 70.8 µM [inhibitor, single point].
With `O=C(NC(=S)N1CCCCCC1)c1cccc([N+](=O)[O-])c1` the Potency was inconclusive: 44.7 µM [inhibitor, partial curve].
With `O=C(O)c1cc(NC(=O)c2ccco2)cc(NC(=O)c2ccco2)c1` the “activity change, negative = inhibition” value was inactive: -1.83%.
In the case of `O=C(Cn1cnc2c(oc3nc4c(cc32)CCCC4)c1=O)Nc1cccc(Cl)c1`, the Potency is reported as inconclusive: 56.2 µM [inhibitor, partial curve].
In the case of `COc1ccc(CN2CCC(Cc3ccccc3)CC2)cc1OC`, the Potency is reported as inconclusive: 79.4 µM [inhibitor, partial curve].
`CCOC(=O)/C=C1\Nc2ccccc2OC1=O` was tested, and the Potency was inconclusive: 50.1 µM [inhibitor, partial curve].
`O=[N+]([O-])c1ccc(N2CCN(CC3CCCCC3)CC2)cc1` was tested, and the Potency was active: 56.2 µM.
For `CC(C)C(c1nnnn1C1CCCC1)N(C)C1CCCCC1` (stereo not drawn), the “activity change, negative = inhibition” value was inactive: -22.7%.
With `Cc1ccc(C2=NN(C(=O)c3ccccc3F)C(c3ccccc3F)C2)cc1` (stereo not drawn) the “activity change, negative = inhibition” value was inactive: -37.6%.
For `CN1CCN(C(=S)c2ccc([N+](=O)[O-])cc2)CC1`, the “activity change, negative = inhibition” value was inactive: 7.48%.
For `O=C(CSc1nnc(-c2ccc(Br)o2)n1Cc1ccccc1)c1ccccc1F`, the Potency was inconclusive: 39.8 µM [inhibitor, full curve].
`Cc1c(C(=O)N(Cc2ccc(N(C)C)cc2)CC2CCCO2)oc2ccc(Cl)cc12` (stereo not drawn) was tested, and the Potency was active: 10 µM.
In the case of `COc1ccc(N2CCN(c3csc4ccc(Cl)cc4c3=O)CC2)cc1`, the Potency is reported as active: 50.1 µM.
In the case of `Cc1cc(C=O)c(C)n1-c1ccc2c(c1)OCO2`, the Potency is reported as inconclusive: 50.1 µM [inhibitor, partial curve].
`COc1ccc(S(=O)(=O)Nc2ccccc2C(=O)NCc2ccco2)cc1Br` was tested, and the Potency was inconclusive: 89.1 µM [inhibitor, single point].
In the case of `Cc1cc(=O)n2[nH]c(C(=O)O)nc2n1`, the Potency is reported as inconclusive: 89.1 µM [inhibitor, single point].
For `Cc1[nH]n(-c2ccccc2)c(=O)c1N=Nc1c(Cl)cccc1Cl`, the Potency was inconclusive: 10 µM [inhibitor, partial curve].
In the case of `Cc1cc(/C=N/Nc2ccc([N+](=O)[O-])cn2)c(C)n1-c1cccc(C(=O)O)c1`, the Potency is reported as active: 44.7 µM.
With `Cc1cc(=O)oc(C)c1C(=O)N1CCN(C(c2ccccc2)c2ccccc2)CC1` the “activity change, negative = inhibition” value was inactive: -32.9%.
With `COC(=O)Nc1ccc(SCC(=O)c2ccccc2)cc1` the “activity change, negative = inhibition” value was inactive: -5.71%.
`CCCCn1c(SCC(=O)c2ccc(O)cc2O)nc2cc(S(N)(=O)=O)ccc21` was tested, and the “activity change, negative = inhibition” value was inactive: -11.2%.
For `FC(F)(F)c1ccccc1CN1CCCC(N2CCN(c3ccccc3)CC2)C1` (stereo not drawn), the Potency was inconclusive: 79.4 µM [inhibitor, single point].
In the case of `O=C(Nc1nnc(-c2cccs2)o1)c1ccc(S(=O)(=O)N2CCOCC2)cc1`, the Potency is reported as inconclusive: 89.1 µM [inhibitor, single point].
`Clc1ccc2c(c1)NC(c1ccncc1)=NC(c1cccs1)=N2` was tested, and the Potency was inconclusive: 39.8 µM [inhibitor, partial curve].
In the case of `Oc1ccccc1/C=N/Nc1cc(N2CCCC2)nc(N2CCCC2)n1`, the Potency is reported as active: 25.1 µM.
